Laboratory results taken from publication PMC4336329 (PLoS ONE, 2015).
Among all 310,000 compounds or so, about 2,200 (0.71%) showed an effect of 50% or more. The effect is printed as a negative number. The list shows a part of the results.

target: human ether-à-go-go-related gene (hERG) potassium channel (human, UniProt Q12809); test: primary screen, population patch clamp on CHO cells stably expressing hERG
Sequence (Q12809 whole entry, looked up): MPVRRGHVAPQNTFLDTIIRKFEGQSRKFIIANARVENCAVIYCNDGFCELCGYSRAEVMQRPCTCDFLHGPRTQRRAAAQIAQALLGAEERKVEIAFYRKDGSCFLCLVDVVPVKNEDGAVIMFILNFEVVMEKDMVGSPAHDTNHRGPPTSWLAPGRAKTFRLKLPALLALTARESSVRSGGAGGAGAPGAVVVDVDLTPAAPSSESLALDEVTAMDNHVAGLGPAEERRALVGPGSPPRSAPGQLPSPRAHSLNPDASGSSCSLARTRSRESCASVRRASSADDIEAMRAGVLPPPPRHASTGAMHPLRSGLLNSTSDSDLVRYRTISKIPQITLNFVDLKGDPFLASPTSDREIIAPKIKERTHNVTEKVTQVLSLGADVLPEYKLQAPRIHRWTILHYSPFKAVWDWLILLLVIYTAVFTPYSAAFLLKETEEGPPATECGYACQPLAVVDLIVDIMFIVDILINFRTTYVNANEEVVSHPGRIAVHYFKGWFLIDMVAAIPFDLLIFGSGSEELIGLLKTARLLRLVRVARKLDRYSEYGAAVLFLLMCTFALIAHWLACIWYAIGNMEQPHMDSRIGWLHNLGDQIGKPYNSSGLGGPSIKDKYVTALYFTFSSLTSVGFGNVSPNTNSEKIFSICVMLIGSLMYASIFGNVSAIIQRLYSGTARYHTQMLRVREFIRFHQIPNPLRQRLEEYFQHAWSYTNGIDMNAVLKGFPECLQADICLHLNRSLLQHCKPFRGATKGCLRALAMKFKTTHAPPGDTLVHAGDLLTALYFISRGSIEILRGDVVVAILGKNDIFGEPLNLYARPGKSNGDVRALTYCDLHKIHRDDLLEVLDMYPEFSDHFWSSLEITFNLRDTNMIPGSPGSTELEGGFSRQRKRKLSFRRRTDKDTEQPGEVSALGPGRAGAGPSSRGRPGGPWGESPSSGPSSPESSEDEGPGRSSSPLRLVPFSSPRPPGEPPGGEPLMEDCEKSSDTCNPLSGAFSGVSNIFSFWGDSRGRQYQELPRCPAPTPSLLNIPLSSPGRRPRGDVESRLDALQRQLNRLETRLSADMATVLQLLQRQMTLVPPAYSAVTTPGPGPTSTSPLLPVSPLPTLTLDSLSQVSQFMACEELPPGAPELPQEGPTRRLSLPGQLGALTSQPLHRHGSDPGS

SMILES	hERG current change (%, negative = inhibition) at 1uM [%]
CCN1CCN(C(=O)CSc2ccc(C)cc2)CC1	13.3
CCCN1CCc2[nH]c(=S)[nH]c(=O)c2C1	8.45
CC1CCCN(S(=O)(=O)c2ccc(NC(=O)C3CC(=O)N(c4ccccc4)C3)cc2)C1 (stereo not drawn)	10.7
COCCn1ccc2c(OCC(=O)NCc3ccccc3)cccc2c1=O	-6.65
CCOCC(=O)NCc1ccc2c(c1)cc(C)n2C	5.1
Cc1ccccc1-n1ncc(C(C)NS(=O)(=O)c2sccc2C)c1C (stereo not drawn)	13.6
CC(C)CN(C(=O)COC(=O)CNC(=O)c1ccccc1F)C1CCS(=O)(=O)C1 (stereo not drawn)	12.3
CC1CCC(N2CCNCC2)CC1.Cl (stereo not drawn)	10.8
Cc1nc(C(F)(F)F)c(C(=O)NC(=O)Nc2ccccc2)s1	11.6
C=CCOc1ccc(C2/C(=C(\O)c3c(C)[nH]c(C(=O)OC)c3C)C(=O)C(=O)N2CCN(C)C)cc1 (stereo not drawn)	15.3
Cc1ccc(N2CC(C(=O)Nc3ccc(S(=O)(=O)N4CCOCC4)cc3)CC2=O)cc1 (stereo not drawn)	2.69
O=C(O)CC(NC(=O)c1ccc2c(c1)OCO2)c1cccc([N+](=O)[O-])c1 (stereo not drawn)	17.3
Cc1ccc2c(C)c(C(=O)N3CCC(N4CCC(C(=O)NC5CC5)CC4)CC3)oc2c1	-14.1
CN(Cc1ccccn1)Cc1nc(COc2ccccc2)no1	5.17
CCOCC(=O)Nc1cc(C(=O)NCCc2ccccc2)ccc1Cl	2.6
CCOC(=O)c1nn(-c2ccccc2F)c(-c2ccccc2)c1C(=O)c1ccccc1	10.2
Cc1nnc(NC(=O)CC(CN(C)S(=O)(=O)c2ccccc2)c2ccccc2)s1 (stereo not drawn)	-4.03
COC(=O)CN(c1cc(OC)ccc1OC)S(=O)(=O)c1ccc(OC)c(OC)c1	8.76
Cn1ccnc1C1CCCCN1C(=O)c1cc(COc2ccc(F)cc2F)on1 (stereo not drawn)	-2.87
O=C(CCNC(=O)N1C[C@H]2C[C@@H](C1)c1cccc(=O)n1C2)Nc1cccc(Cl)c1	11.2
CS(=O)(=O)NCCC1=CCCCC1	12.6
O=C(CNC(=O)c1cccc(-n2cnnn2)c1)Nc1ccc(F)c(F)c1	-0.0982
Cc1cc(N2C(=O)C(O)=C(C(=O)c3cccs3)C2c2ccc(F)cc2)no1 (stereo not drawn)	14.8
CN(C)c1ccc(S(=O)(=O)NCC(=O)N2CCN(c3ccccc3)CC2)cc1[N+](=O)[O-]	10.5
